PubChem BioAssay (NCI)
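In this assay, cells in 96-well plates receive the compound at five concentrations for 48 hours. Endpoints are linearly interpolated between the surrounding concentrations. GI50 marks 50% less growth. TGI is the concentration that stops growth completely.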

System: NCI-H322M lung
Test: NCI anticancer screen, dose series, 48 h

| SMILES | GI50 [µM] | TGI [µM] |
| --- | --- | --- |
| O=C(COc1ccc(NC(=O)Nc2ccc(Cl)cc2)cc1)N/N=C/c1ccccc1 | 3.31 | > 100 |
| Cn1cc(NC(=O)c2cc(NC(=O)c3ccc(/C=C/c4ccccc4)cc3)cn2C)cc1C(=O)NCCCN1CCOCC1 | > 28 | > 28 |
